Reference: article PMC6919601, “Identification of Plasmodium dipeptidyl aminopeptidase allosteric inhibitors by high throughput screening” (PLoS ONE, 2019)
About 230 (0.21%) of roughly 110,000 compounds showed an effect of 50% or more. The list shows a part of the results.

Biological target: DPAP1 (Plasmodium falciparum, UniProt Q8IIJ9)
Experiment: primary screen, percent inhibition; read by cleavage of a fluorogenic dipeptide substrate; higher = more effect of the substance
Set-up: species or system P. falciparum D10 trophozoite lysates; single well
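Also: 30 min substrate incubation versus DMSO and 10 µM JCP410 controls.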

DPAP1, sequence (Q8IIJ9 whole entry, looked up): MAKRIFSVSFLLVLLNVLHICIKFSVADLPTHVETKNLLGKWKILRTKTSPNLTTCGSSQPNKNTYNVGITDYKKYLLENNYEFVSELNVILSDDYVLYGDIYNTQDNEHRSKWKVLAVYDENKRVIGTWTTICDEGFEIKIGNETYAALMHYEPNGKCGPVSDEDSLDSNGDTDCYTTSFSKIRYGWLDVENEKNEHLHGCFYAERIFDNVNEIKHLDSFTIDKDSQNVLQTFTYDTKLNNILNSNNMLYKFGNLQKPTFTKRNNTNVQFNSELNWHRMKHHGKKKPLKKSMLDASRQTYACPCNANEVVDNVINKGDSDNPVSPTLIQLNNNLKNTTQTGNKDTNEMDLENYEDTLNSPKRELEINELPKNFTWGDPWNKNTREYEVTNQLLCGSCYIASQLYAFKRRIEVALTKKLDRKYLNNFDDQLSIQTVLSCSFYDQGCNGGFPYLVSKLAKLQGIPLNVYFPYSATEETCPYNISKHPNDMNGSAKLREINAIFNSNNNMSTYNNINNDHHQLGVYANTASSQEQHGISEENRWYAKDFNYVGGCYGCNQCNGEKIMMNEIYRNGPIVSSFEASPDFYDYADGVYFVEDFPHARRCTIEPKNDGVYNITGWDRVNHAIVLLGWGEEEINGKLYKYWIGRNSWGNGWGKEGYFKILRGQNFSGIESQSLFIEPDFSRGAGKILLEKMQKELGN

| SMILES | % Inhibition @ 10 uM |
| --- | --- |
| O=C1/C(=C/c2cc(Cl)cc(Br)c2O)Sc2ccccc21 | -2.42% |
| Cc1ccc2cccc(OCC(=O)c3ccc(C)c(C)c3)c2n1 | 2% |
| O=C(COCc1cc(-c2ccc3c(c2)OCO3)on1)NC1CCCC1 | 1.34% |
| COc1ccc(OC)c(NC(=O)c2ccc(C)o2)c1 | 3.77% |
| CCOC(=O)N1CCC(c2cc(O)n(-c3ccccc3)n2)CC1 | 2.39% |
| COc1cccc(-c2cc(C(F)(F)F)nc(-n3cccn3)n2)c1 | 1.82% |
| CC(C)CNC(=O)c1cc(-c2ccccc2F)no1 | -0.613% |
| Cc1cc(C)c2c(c1)c(=O)c(C(=O)O)cn2C | -2.66% |
| COc1ccccc1C(=O)NC1CCCCC1 | 5.26% |
| Cc1nc2nc(C)c(CCC(=O)NCc3ccc4c(c3)OCO4)c(C)n2n1 | -4.1% |
| c1ccc(OCC2CN3CCOB(OCC3)O2)cc1 (stereo not shown) | -3.98% |
| COc1cc(/C=C(/C#N)C(N)=S)ccc1OCCN1CCOCC1 | 28.2% |
| CCc1ccc2occ(CC(=O)Nc3nnc(C(C)C)s3)c2c1 | -0.671% |
| CC1=CC2=NC(C(F)(F)F)(C(F)(F)F)N=C(c3cccnc3)N2C=C1 | -3.53% |
| CCc1nn(CC(=O)N2CC(C)CC(C)C2)c(=O)c2cccn12 (stereo not shown) | -0.405% |
| C(=C\c1ccccc1)/CN1CCN(Cc2ccc3ccccc3c2)CC1 | -1.77% |
| c1ccc(C2NCc3ccccc3-n3cccc32)cc1 (stereo not shown) | -0.736% |
| Cc1cc(/C=C2\NC(=O)N(Cc3ccc(Cl)cc3)C2=O)c(C)n1-c1ccc2c(c1)OCO2 | 5.37% |
| CCn1nc(C)c(NC(=O)c2c(Cl)cccc2Cl)c1C | -9.31% |
| CN1C(=O)c2ccccc2C(C(=O)NCCCN2CCCCCC2)C1c1cn(C)c2ccccc12 (stereo not shown) | 8.12% |
| CC(C)CC1(C)N=C(c2ccccc2)C(=S)N1 (stereo not shown) | 4.63% |
| Cc1ncc(CO)c2c1Oc1nc(-c3ccccc3F)nc(SC(F)F)c1C2 | -1.11% |
| COc1ccc(NC(=O)C2CCN(S(C)(=O)=O)CC2)c(OC)c1 | -6.36% |
| O=C1O[C@@H]2C[C@H]3C[C@@H]2[C@@H]1[C@H]3C(=O)N1CCCCC1 | -1.15% |
| Cc1cc(C)c2c(N)c3ccccc3nc2n1 | -1.98% |
| CC1(C)CC(=O)C2=C(C1)N(c1ccccc1)C(N)=C(C(N)=O)C2c1ccc(Cl)cc1 (stereo not shown) | -1.2% |

| SMILES | % Inhibition @ 10 uM |
| --- | --- |
| COc1ccc(S(=O)(=O)N2CCN(Cc3ccccc3C(F)(F)F)CC2)cc1 | 4% |
| O=C(O)C(=Cc1cccc([N+](=O)[O-])c1)C(=O)O | 0.989% |
| CC(NC(=O)C1CCN(c2cnccn2)CC1)c1ccccc1 (stereo not shown) | 5.39% |
| Cc1ccccc1C1OC2(C(=O)c3ccccc3C2=O)C2C(=O)N(C3CCCCC3)C(=O)C12 (stereo not shown) | 2.69% |
| O=S(=O)(N1CCCCC1)N1CCN(CC(O)COc2ccc3ccccc3c2)CC1 (stereo not shown) | -1.05% |
| Cc1ccc(-n2ncc3c(NCCCN4CCCC4=O)ncnc32)c(C)c1 | 5.54% |
| C=CCn1c(S)nnc1-c1ccc(C(C)(C)C)cc1 | 0.454% |
| CC(=O)Nc1ccc(NC(=O)c2ccc(Cl)c(Cl)c2)cc1 | -7.99% |
| CCc1ccc(C2N3CC4(C)CN2CC(C)(C3)C4=O)cc1 (stereo not shown) | -3.49% |
| CCCNC(=O)Cn1nc(CC)n2c(cc3sccc32)c1=O | 1.8% |
| CCOc1ccccc1C(=O)Nc1ccc(C(C)=O)cc1 | -7.23% |
| Cc1ccc(-c2c(CSC(=N)N)csc2C)cc1 | 40.9% |
| COc1ccc(CNC2CC(C)(C)OCC2Cc2ccccc2)cc1 (stereo not shown) | -8.21% |
| CC(C)(C)c1ccccc1NC(=O)c1ccc(Br)o1 | -1.04% |
| CCOc1cc(CN2CCN(c3ccccc3OC)CC2)ccc1O | 0.605% |
| COc1cc(C2CC(=O)NC3=C2C(=O)CC(c2ccccc2Cl)C3)cc(OC)c1OC (stereo not shown) | -2.87% |
| CC1=C(c2ccc(C)c(C)c2)S(=O)(=O)N=C1NCCC1=CCCCC1 | -4.68% |
| CCOC(=O)C1=C(C)N(C)C(=O)NC1c1cc(OC)ccc1OC (stereo not shown) | 0.345% |
| O=C(Cc1ccccc1F)Nc1cccc2cccnc12 | -0.884% |
| CC(=O)N(CCCN(C)C)c1nc2ccc(F)cc2s1 | -6.62% |
| CC1CCc2c(C(=O)NCCC3=CCCCC3)csc2C1 (stereo not shown) | 3.54% |
| O=S(=O)(Nc1ccccc1)c1ccc(NS(=O)(=O)c2cc(Cl)ccc2Cl)cc1 | 2.64% |
| CCOC(=O)c1cc2ccccc2nc1N | 1.76% |
| CC1=NN(c2cccc(S(N)(=O)=O)c2)C(=O)C1 | 0.937% |
| COc1ccc(NC(=O)c2sc3nc4c(cc3c2N)CCCC4)cc1Cl | 1.17% |
| O=C(CN(c1ccc(F)cc1)S(=O)(=O)c1ccccc1)Nc1cccc(Cl)c1 | 0.206% |
